In all, about 4,500 sequences were measured (“median log2 fold change of GCK-ALFA target abundance (FLAG IP / Myc IP barcode read proportion)”: median about 0.078, lowest 2% from about -0.6 on). The list shows a part of the results.
B1: GBRAP_160_4639 (protein)
chain: SPEVEELKEIIEEGTEIVLEEVDAGDLANALAALRVMVGEVVMEAVEDPRFSDEDVDRLDALGDAAVARFAAAEGASPEELKAIVEEAAEELKELVKSFF
B2: GBRAP_78_6707 (protein)
chain: MVEEKLEEAIKELNKAAKLLVKEGTELANEALGELVDAITYLWEAIEEGADLKLLEEALKHLKKAIEIAKKLNVENKEEILKHLEKAKKLVEEAIKEVKK
B3: GBRAP_184_5141 (protein)
chain: TLLVRYIDAETVEEALAGARAAFEEAKAAGAKLTLFVDAEGLSVEEVAELARRLRALADELGLPDANIILEVTADEEEADRIIAAADAAGVRVVVALEEE
B4: GBRAP_35_5620 (protein)
chain: NIDEETVELALDVLRDAVEALEEGDAAALAPALVRIATAALDILTDEKDKVPNAAEYLKEFAALLDRAIAILAAHPELAAERAALEKIRAEVEALLKEVE
B5: GBRAP_52_6324 (protein)
chain: SSAKVQAYADALVAAIRAGDEAEARALAEKMVAELSPEEILEMARLVAEAIAGEDDEVHERAAEVFEYLADLVIEKKGDEETAAEILGIYATTLYAAEQA
B6: GBRAP_160_4716 (protein)
chain: AATAEKRIAFVDEEMAEARELVKGESIAQRAVILRGTGGEIIMELWEDPNASDELIDEVDAIIDAAVATLEANPDLTDAEIDALIAAARAAMKAAIKKHY
B7: GBRAP_35_5563 (protein)
chain: DFDETVAEMMANTVDALTEAVPDLDPATLLQITQQIMAAVKKVIEDIKNNKEALEKILKSLEKLRAAIEAQGLDDPNRQAALAAVEEAIKLAKKAIKEAK
B8: GBRAP_52_5945 (protein)
chain: SEAKVRALAEAFVEAAAAGDEEKAREILLEAAKTLNDEEWDLFADALAELLATADLETIERVLEIILENEDELEKLGVSEEQIGRLEAAAATAGLAALQA
B9: GBRAP_43_5754 (protein)
chain: MKELIEGSIDFALLAAESPEISEEQKLKIIKDVFDIVADEGIDLKEELLKLVEAAAKSLSKEQLEELLKHAKELAEKYPELKEMFEEAAKILKEAIEKLK
B10: GBRAP_43_5788 (protein)
chain: MKEIVEGTLDFAFTALETPEITDETKGKIVVDAVEFAIDEGTLTPEELKKLLEAAKKSISPEVFAKALKEILKHAKKEGAPQELIDIIEKALKEAEKEIA
B11: GBRAP_160_4537 (protein)
chain: NEKVEELLKDLDEEEEFIISLVDEVSVEELQNFIRVEVGSFILYGRELGVISDELEEKIDAIVDETIATLNANKNASVEEKKAIIKEAFEKIKEAIKESS
B12: GBRAP_160_4647 (protein)
chain: MESLKEIKEIIEEYSEIAKEYIKEGDLEGAIAAMRMMVGDVVLEADEDPKFSEEDVDELDKLGREGVEKLEAARDKSPEELIKLVEETKKELLELIEKYY
B13: GBRAP_11_2895 (protein)
chain: KKEKLEKLAELAKKAVELLEKLLKEGPENKELREELKKTIKEAEKLAKEVLDESDVELVKEILELLKKSEEDPENAEEYLKEALAFARVLEGQVLLKIEE
B14: GBRAP_52_6117 (protein)
chain: MRERLRAEVRELLELVRAGRLEEARRRARELVASIDDEELRLLAEALAELAREAAPEDLDAVWRLAEILAEEMEEAGYDEVLVDDLLARTAAALYERELA
B15: GBRAP_52_6315 (protein)
chain: MREEMLAHAQRLLELALAGKREELRAEARELVRSLSDEELLALAEALAELAKTANEEELDAIAEMVEILEEVMEEEGVDERVISEMLGIVTTALYEKELA
B16: GBRAP_128_3338 (protein)
chain: VDEERLKEVEELVEKIIKADDETAKKLAEELAELLVTLSLEEVEAAVEIIRKHIPKLTAKQLDILAEELEKKLPEFSPEKQLIISDLIVDLLNASVEKEE
B17: GBRAP_11_2692 (protein)
chain: KKEKLKKAAELAEKLAEVLERLLEEGVDNEELLEEAEKLLEELEELTKEYGDEGDRKLVEILREEWEEALEDPENAEEHVRHALAIARVLSGNYLLKIEE
B18: GBRAP_80_6820 (protein)
chain: MEEEIEAHLKEIAEIDPELAEVVARAVKIAKELGVPLEEIARLVKALAELAKLDLERARELAERLLKELEKYKAAGDREGALAEVVDATSEALLEVEKLE
B19: GBRAP_125_3033 (protein)
chain: SEEELKEALALIAKRLGLSDDDVAELVALARAHGIKGAMIALALAEGNEELADLLEKLTEEEVKEVALRLAEYLKENPDLTPEEVLEKLLEIAKEAVAKS
B20: GBRAP_184_5251 (protein)
chain: MNAFIELKVNSKEDIPKAVAEFEEFLKDHKDTVYVLLDAKNLSSEEKVELIRKIGEAAKKAGVKRLIIDILEEVDEETADKLVEAADELGIQLVLPLKEE
B21: GBRAP_80_6750 (protein)
chain: DLAALEAALDRIAALDPELGAALRAVFARLREAGVDVRVLRRTAEALLELAELDLEKARELARRLIAEATAALEAGDLEGATGLLVEAESEALLAVEELE
B22: GBRAP_186_5392 (protein)
chain: EEEEEEEEELLARLEAEYDVVIVVYLDESDSLEKKKATMDREVEAAEALARETGKRVAVLFVATADKETGEELRAHAAALDAEAAARSGVAVALHYREKP
B23: GBRAP_160_4521 (protein)
chain: SAALERAKKLLREAAERAIEMVKGETAEQRAVIVSGEFGSLAMEFAEDERFSDEMVDVVLEAEDELVDTILANPDLTDEELAKLIREAVERTEKELEKLA
B24: GBRAP_160_4420 (protein)
chain: MELIKEVEEILDETKELVVELIEEGEREEAIAALKVGAGEILLLLDEDESVSEEAREEVDKVLEETIKTFEENKDFTPEEVAELLDEAKKKILEILKKYS
B25: GBRAP_184_5164 (protein)
chain: KVLEETLKASNLAEAKEKLAKIRAAAAKTKAPLYVILELEKPEKEILKTIFAELGAILAEGLATSVTLELTSDLTEEQIDFAIKEADEAGVRLVLAIPDE
B26: GBRAP_160_4737 (protein)
chain: EEHIEELVERARKELLEALELSEGESKEEKEAIFRGAAGEVLMDFMEDPRLSDEMEDAAAEILDELVAELVAAYDASKEEKRAIVDRKVEELRDRLLALA
B27: GBRAP_128_3322 (protein)
chain: MDEARLAEAEALARAMVKASVEEARELTRRLVALLATATPEERERIAEIAEEEFKKLSAEKLEAVAETLRAERPRLDPETAEVVAGLEVEALNLAEEKEE
B28: GBRAP_125_3020 (protein)
chain: SDEEIVEDLGAIAKALGYSEEDVEEIKELARKHGIKGTLIAIALAEGWEELAELLEKLSEEEVKEVVRELAAWLKAHPDATPEEVKAKLLELAKKAVAEK
B29: GBRAP_160_4603 (protein)
chain: SAEVEELIKEIQEIFDEALELTEGESPENRLVILSVAFGEILLLLEESPIVSDETLEYADEVLDEVLAWLKANPEASLEEIRAKLEEALEKIREKLEKEA

These binders were tested against GABARAP, O95166 (assay: median log2 fold change of GCK-ALFA target abundance (FLAG IP / Myc IP barcode read proportion) (log2 ratio); each designed protein is fused to an ALFA-tag nanobody in HEK293 cells to bring the named protein to FLAG-tagged glucokinase (GCK); Myc marks an untargeted standard; higher = target protein stabilised (more abundant)). Settings: target protein: 3xFLAG-MCP-GCK-ALFA reporter; HEK293 landing pad (RPLP).
GABARAP, O95166, sequence (O95166 whole entry, the tested form may be a part): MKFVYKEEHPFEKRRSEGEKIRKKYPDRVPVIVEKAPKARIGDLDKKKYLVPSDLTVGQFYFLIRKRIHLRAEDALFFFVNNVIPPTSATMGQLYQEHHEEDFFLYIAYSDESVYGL
Method in brief: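 An ALFA-nanobody-fused binder library was recombined into HEK293 landing-pad cells and induced with 2 μg mL^−1 doxycycline. Cells were transfected with a plasmid expressing a FLAG-tagged target and a Myc-tagged standard. After 48 h, lysates underwent anti-FLAG and anti-Myc immunoprecipitation, and circular RNA barcodes were reverse transcribed, amplified and sequenced. Target abundance is the per-binder median log2 ratio of FLAG to Myc barcode read proportions. Barcodes needed ≥10^−7 proportion in both replicates, binders ≥3 barcodes per replicate, and a 10^−6 pseudocount was added; the two replicates were pooled.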

Q: How did the “median log2 fold change” value turn out when B1 was run?
A: -0.325

Q: With B2 as the binder, how does the “median log2 fold change” value read?
A: -0.319

Q: B3 was tested. Which “median log2 fold change” value did it give?
A: 0.11

Q: B4 was tested. Which “median log2 fold change” value did it give?
A: -0.325

Q: For B5, which “median log2 fold change” value is on record?
A: 0.119

Q: How did the “median log2 fold change” value turn out when B6 was run?
A: -0.524

Q: B7 was tested. Which “median log2 fold change” value did it give?
A: -0.166

Q: For B8, which “median log2 fold change” value is on record?
A: -0.137

Q: Which “median log2 fold change” value does the source give for B9 here?
A: 0.274

Q: How did the “median log2 fold change” value turn out when B10 was run?
A: 0.536

Q: Which “median log2 fold change” value does the source give for B11 here?
A: -0.0723

Q: With B12 as the binder, how does the “median log2 fold change” value read?
A: -0.0683

Q: Which “median log2 fold change” value does the source give for B13 here?
A: 0.14

Q: Which “median log2 fold change” value does the source give for B14 here?
A: -0.215

Q: B15 was tested. Which “median log2 fold change” value did it give?
A: -0.0843

Q: For B16, which “median log2 fold change” value is on record?
A: 0.236

Q: How did the “median log2 fold change” value turn out when B17 was run?
A: -0.0509

Q: With B18 as the binder, how does the “median log2 fold change” value read?
A: 0.283

Q: B19 was tested. Which “median log2 fold change” value did it give?
A: 0.169

Q: For B20, which “median log2 fold change” value is on record?
A: 0.0809

Q: B21 was tested. Which “median log2 fold change” value did it give?
A: 0.21

Q: With B22 as the binder, how does the “median log2 fold change” value read?
A: 0.12

Q: With B23 as the binder, how does the “median log2 fold change” value read?
A: -0.0233

Q: B24 was tested. Which “median log2 fold change” value did it give?
A: 0.245

Q: B25 was tested. Which “median log2 fold change” value did it give?
A: 0.164

Q: How did the “median log2 fold change” value turn out when B26 was run?
A: 0.233

Q: B27 was tested. Which “median log2 fold change” value did it give?
A: 0.326

Q: With B28 as the binder, how does the “median log2 fold change” value read?
A: -0.259

Q: How did the “median log2 fold change” value turn out when B29 was run?
A: -0.235

Reference: the supplement of paper PMC12632987
